# Source: publication PMC4336329 (PLoS ONE, 2015)
# In all, about 310,000 compounds went through this assay and about 2,200 (0.71%) showed an effect of 50% or more. Effects have a minus sign here. The list shows a part of the results.
# Target: human ether-à-go-go-related gene (hERG) potassium channel (human, UniProt Q12809)
# Assay: primary screen, population patch clamp on CHO cells stably expressing hERG
# Chain of human ether-à-go-go-related gene (hERG) potassium channel (Q12809 whole entry, looked up): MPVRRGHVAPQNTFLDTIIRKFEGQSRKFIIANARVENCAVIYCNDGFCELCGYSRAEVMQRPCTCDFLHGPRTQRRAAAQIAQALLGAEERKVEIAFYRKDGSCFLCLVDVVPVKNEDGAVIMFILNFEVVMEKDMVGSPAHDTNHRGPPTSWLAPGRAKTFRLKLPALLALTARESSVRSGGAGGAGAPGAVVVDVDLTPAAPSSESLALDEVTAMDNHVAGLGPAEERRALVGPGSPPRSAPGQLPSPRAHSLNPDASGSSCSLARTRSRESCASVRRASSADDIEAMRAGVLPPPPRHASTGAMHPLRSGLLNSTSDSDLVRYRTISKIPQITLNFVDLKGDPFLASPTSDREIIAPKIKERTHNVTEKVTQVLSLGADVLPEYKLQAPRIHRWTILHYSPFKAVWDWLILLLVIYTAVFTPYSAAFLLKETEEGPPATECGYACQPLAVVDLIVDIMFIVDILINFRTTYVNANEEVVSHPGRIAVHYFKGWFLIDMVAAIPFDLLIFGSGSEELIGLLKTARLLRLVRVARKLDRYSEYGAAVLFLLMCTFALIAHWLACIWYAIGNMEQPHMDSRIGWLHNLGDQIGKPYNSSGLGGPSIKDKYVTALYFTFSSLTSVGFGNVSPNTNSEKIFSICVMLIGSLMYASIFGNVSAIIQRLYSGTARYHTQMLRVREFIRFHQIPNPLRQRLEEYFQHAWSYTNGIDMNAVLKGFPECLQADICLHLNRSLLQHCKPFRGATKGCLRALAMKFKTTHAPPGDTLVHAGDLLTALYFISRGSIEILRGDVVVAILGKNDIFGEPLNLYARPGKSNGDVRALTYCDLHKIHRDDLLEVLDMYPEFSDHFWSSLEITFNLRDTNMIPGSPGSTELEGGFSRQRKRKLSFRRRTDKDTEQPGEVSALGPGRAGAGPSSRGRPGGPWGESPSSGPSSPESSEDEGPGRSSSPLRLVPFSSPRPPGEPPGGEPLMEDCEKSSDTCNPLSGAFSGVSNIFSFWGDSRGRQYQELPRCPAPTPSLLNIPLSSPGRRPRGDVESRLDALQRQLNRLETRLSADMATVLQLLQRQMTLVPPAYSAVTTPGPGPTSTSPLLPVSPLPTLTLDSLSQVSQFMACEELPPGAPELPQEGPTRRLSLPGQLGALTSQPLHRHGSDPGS
row,SMILES,"hERG current change (%, negative = inhibition) at 1uM [%]"
1,COCc1cc(C)nc(OC)c1C(N)=O,18.5
2,O=C(COC(=O)CC1CC2CCC1C2)Nc1ccc(Cl)c(S(=O)(=O)N2CCOCC2)c1 (centres unmarked),8.43
3,CCCn1c(C)cc(C(=O)COC(=O)CN=C2NS(=O)(=O)c3ccccc32)c1C,11.7
4,CCc1ccc(N=Nc2ccc(O)c3[nH]cnc23)cc1.[Cl-],11.9
5,CCN1C(=NCc2ccco2)N[C@@H](c2cccc(F)c2)C(C(=O)OC)=C1C,-1.29
6,CCN(CC)c1ccc(C=Nc2cccnc2Cl)c(O)c1,16.3
7,Cc1nnc(SCC(=O)N2N=C(c3ccc(Cl)cc3)CC2c2ccco2)[nH]c1=O (centres unmarked),9.72
8,Nc1c(C(=O)NC2CCCC2)c2nc3ccccc3nc2n1/N=C/c1ccco1,-5.95
9,CCOC(=O)c1ccc(NS(=O)(=O)c2c(N)n(C)c(=O)n(C)c2=O)cc1,9.67
10,CC1CCCN(C(=O)c2cc(F)c(F)cc2Cl)C1 (centres unmarked),-17
11,CC(/C=N\N1CCN(c2ccc(Cl)cc2)CC1)=C\c1ccccc1,1.61
12,Cc1oncc1C(=O)NC1CCCCC1,18.3
13,CCOc1ccc2nc(NC(=O)CCn3cccc3)sc2c1,0.632
14,COC(=O)c1cc(OC)c(OC)cc1NCC(=O)Nc1cccc(C(F)(F)F)c1,16
15,CN(C)S(=O)(=O)N(CC(=O)N1CCN(c2ccccc2)CC1)c1ccccc1,-1.69
16,O=C(CCc1ccccc1)Nc1nc2n(n1)C(c1ccccc1)CC(=O)N2 (centres unmarked),13
17,Cc1cccc(C(=O)c2cccc(C)c2)c1,9.57
18,CC(=O)Nc1ccc(NC(=O)C(c2ccccc2)c2ccccc2)cc1,15.7
19,O=C1COc2ccc(S(=O)(=O)N3CCN(c4ccccc4)CC3)cc2N1,12.4
20,COc1ccc(C(CNC(=O)c2oc3ccc(OC)cc3c2C)N2CCCC2)cc1 (centres unmarked),-30.8
21,O=C(CSCc1nc2c(nnn2Cc2ccc(F)cc2)c(=O)[nH]1)Nc1cccc(C(F)(F)F)c1,12.7
22,CCOc1cc(N2CCOCC2)c(OCC)cc1NC(C)C(=O)N1CCC(C)CC1 (centres unmarked),11.4

row,SMILES,"hERG current change (%, negative = inhibition) at 1uM [%]"
1,O=C(CSc1ccccc1)N1CCC(N2CCC(C(=O)N3CCCC3)CC2)CC1,-4.77
2,COc1ccc(C(=O)N/N=C(\C)CC(=O)N2CCN(C=O)CC2)cc1,21.4
3,O=S(=O)(c1ccc(-c2ccccc2)cc1)N1CCOCC1,9.41
4,COc1ccc2sc(N(CCN(C)C)C(=O)c3cc(Cl)sc3Cl)nc2c1.Cl,7.91
5,CC(=O)Nc1cc(C(=O)N2CCc3ccccc3C2)ccc1Sc1ccc(Cl)cc1,9.31
6,Cc1cc(C)nc(SCc2ccc(Cl)cc2)n1,15.1
7,O=C(Nc1ccccc1Cl)N1CCN(Cc2ccc3c(c2)OCO3)CC1,17
8,Cc1ccc(S(=O)(=O)Nc2cc(C(=O)O)ccc2N2CCCCC2)cc1,8.52
9,Cc1cccc(-n2c(=O)[nH]c3c(C(N)=O)nc(CC(C)C)nc32)c1,11.6
10,Nc1nonc1-n1nnc(C(=O)N/N=C/c2c(Cl)cccc2Cl)c1CSC1=NCCS1,15.2
11,C/C(CC(=O)Nc1ccc2c(c1)OCCO2)=N\NC(=O)COc1cccc(C)c1,9.91
12,Cc1nc(N2CCN(c3ccccn3)CC2)c2c(C)c(C(=O)Nc3c(C)cc(Br)cc3C)sc2n1,16.8
13,O=C(NC(=S)NC1C2CC3CC(C2)CC1C3)C12CC3CC(CC(C3)C1)C2 (centres unmarked),4.43
14,CC(C)CNC(=S)NNC(=O)c1csc2ccccc12,9.77
15,Cc1nn(C(=O)c2cccc([N+](=O)[O-])c2)c(C)c1Sc1ccccc1,11.4
16,O=S(=O)(c1ccccc1)N1CCN(c2ncnc3scc(-c4ccccc4)c23)CC1,18.5
17,COc1ccc(-c2cn(-c3ccccc3)nc2CO)cc1,7.87
18,CCCCCOc1ccc(C(=O)CCC(=O)N2CCCC2)cc1,9.37
19,CN(C)CCNC(=O)c1ccc(COc2ccc(Cl)cc2Cl)cc1,-1.41
20,COc1ccc(C(=O)NC2CC3CCCC(C2)N3Cc2ccccc2)cc1 (centres unmarked),-15.7
21,COC(=O)c1ccc(COc2c(F)c(F)cc(F)c2F)o1,7.83
22,CC(=O)Oc1ccc(N2C(=O)C3C4C=CC(CO)(O4)C3C2=O)cc1 (centres unmarked),12.7
